The structures appear in SMILES notation. Out of some 310,000 compounds screened, about 14,000 (4.5%) showed an effect of 50% or more. The effect is printed as a negative number. The list shows a part of the results.
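Note: peak tail current of the secondary pulse compared with the same well before compound.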

Sequence of human ether-à-go-go-related gene (hERG) potassium channel (Q12809 whole entry, looked up): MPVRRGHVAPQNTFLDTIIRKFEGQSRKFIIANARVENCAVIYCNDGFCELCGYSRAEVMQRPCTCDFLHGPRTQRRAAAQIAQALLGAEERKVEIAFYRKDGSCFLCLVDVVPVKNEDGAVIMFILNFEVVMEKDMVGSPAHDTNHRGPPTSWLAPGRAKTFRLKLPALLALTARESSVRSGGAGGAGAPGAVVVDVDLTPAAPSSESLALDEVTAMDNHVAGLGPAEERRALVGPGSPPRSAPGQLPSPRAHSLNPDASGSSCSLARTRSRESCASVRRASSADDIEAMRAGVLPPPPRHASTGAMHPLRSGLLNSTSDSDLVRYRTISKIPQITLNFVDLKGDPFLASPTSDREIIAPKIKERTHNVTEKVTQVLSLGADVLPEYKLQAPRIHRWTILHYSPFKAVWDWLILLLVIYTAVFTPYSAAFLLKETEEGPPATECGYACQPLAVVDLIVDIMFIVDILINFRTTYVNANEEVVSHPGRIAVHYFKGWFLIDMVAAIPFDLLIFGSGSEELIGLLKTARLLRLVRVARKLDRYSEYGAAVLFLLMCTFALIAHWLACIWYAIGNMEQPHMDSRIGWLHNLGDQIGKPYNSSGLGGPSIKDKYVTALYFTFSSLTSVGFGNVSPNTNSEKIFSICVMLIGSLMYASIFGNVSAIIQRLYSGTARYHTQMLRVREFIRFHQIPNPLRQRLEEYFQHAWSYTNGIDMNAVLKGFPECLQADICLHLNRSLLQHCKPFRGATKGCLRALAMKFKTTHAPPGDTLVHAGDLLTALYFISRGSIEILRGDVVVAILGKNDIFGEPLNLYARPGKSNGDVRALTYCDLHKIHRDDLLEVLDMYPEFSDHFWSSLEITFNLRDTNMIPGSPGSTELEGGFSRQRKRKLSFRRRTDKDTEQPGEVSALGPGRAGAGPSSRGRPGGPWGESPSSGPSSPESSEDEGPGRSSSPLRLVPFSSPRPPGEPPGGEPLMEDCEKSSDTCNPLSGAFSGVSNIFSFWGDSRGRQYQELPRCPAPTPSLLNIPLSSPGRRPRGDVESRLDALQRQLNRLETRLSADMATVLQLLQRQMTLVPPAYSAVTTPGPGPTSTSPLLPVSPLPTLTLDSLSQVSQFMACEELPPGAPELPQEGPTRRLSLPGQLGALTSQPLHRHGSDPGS

The test has as its target human ether-à-go-go-related gene (hERG) potassium channel (human, UniProt Q12809). Put plainly: primary screen, population patch clamp on CHO cells stably expressing hERG.
`COc1ccc(S(=O)(=O)NC(N)=NCCc2ccc(OC)c(OC)c2)cc1`: the “hERG current change (%, negative = inhibition) at 10uM” value is given as 8.65%.

For the molecule `Cc1cccc(NC(=S)NNC(=S)NC2CCCCC2)c1C`, the “hERG current change (%, negative = inhibition) at 10uM” value is reported as 19.3%.

As to `O=C(CCCCCNC(=O)c1ccccc1Br)N=Nc1c(O)[nH]c2ccccc12`, the “hERG current change (%, negative = inhibition) at 10uM” value is reported as 14.9%.

Consider `O=C(CNC(=S)NC(=O)c1ccc(Br)o1)c1ccccc1`, for which the “hERG current change (%, negative = inhibition) at 10uM” value is given as 7.27%.

`Cc1cccnc1NC(=O)CCNS(=O)(=O)c1ccc2c(c1)c(=O)n(C)c(=O)n2C`: the “hERG current change (%, negative = inhibition) at 10uM” value is 11.9%.

Turning to `CCOC(=O)c1c(NC(=O)CN2CCOCC2)sc(C(=O)NC)c1C`, the “hERG current change (%, negative = inhibition) at 10uM” value is -0.98%.

Turning to `CN(C(=O)C1CCC1C(=O)O)c1nc(-c2ccc(Cl)s2)cs1` (centres unmarked), the “hERG current change (%, negative = inhibition) at 10uM” value amounted to 9.34%.

Turning to `O=C(c1n[nH]c(=O)c2ccccc12)N1CCOCC1`, the “hERG current change (%, negative = inhibition) at 10uM” value is on record as 5.08%.

For the molecule `Cc1ccc(CN(C)Cc2cc(=O)oc3cc(C)c(Cl)cc23)cc1`, the “hERG current change (%, negative = inhibition) at 10uM” value came to 14.9%.

As for `Brc1ccc(OCCN2CCOCC2)cc1`, the “hERG current change (%, negative = inhibition) at 10uM” value is on record as 4.54%.

Turning to `Clc1ccccc1CSc1ncn(-c2ccccc2)n1`, the “hERG current change (%, negative = inhibition) at 10uM” value was -33.4%.

Regarding `CCCCNC(=O)[C@@H]1CSC2c3ccccc3C(=O)N21` (some centres unmarked), the “hERG current change (%, negative = inhibition) at 10uM” value is reported as 13.9%.

`COC(=O)C[C@H]1c2cc(F)ccc2S(=O)(=O)N1Cc1ccccc1`: the “hERG current change (%, negative = inhibition) at 10uM” value is reported as -1.3%.

Take `CC(=O)c1ccc(S(=O)(=O)N2CCN(C(=O)c3ccccc3Cc3ccccc3)CC2)cc1`: the “hERG current change (%, negative = inhibition) at 10uM” value is 3.86%.

For `O=C(CCCN1C(=O)S/C(=C\C=C\c2ccccc2)C1=O)Nc1ccc(C(=O)O)cc1`, the “hERG current change (%, negative = inhibition) at 10uM” value was 31.5%.

`O=C(COC(=O)CNC(=O)c1ccc(Br)o1)Nc1ccccc1OC(F)F`: the “hERG current change (%, negative = inhibition) at 10uM” value was -51.6%.

Regarding `O=C(NC1CCCC1)C1CC(=O)N(c2ccc(F)c(Cl)c2)C1` (centres unmarked), the “hERG current change (%, negative = inhibition) at 10uM” value came to 1.97%.

In the case of `O=C(NCCCN1CCOCC1)c1cc(-c2ccccc2F)no1`, the “hERG current change (%, negative = inhibition) at 10uM” value came to 9.51%.

With `Cc1cccc(-c2noc(-c3ccno3)n2)c1`, the “hERG current change (%, negative = inhibition) at 10uM” value was -53%.

For `CCOC(=O)C1(Cc2ccccc2)CCN(Cc2cnn(C(C)C)c2)CC1`, the “hERG current change (%, negative = inhibition) at 10uM” value is given as -28.7%.

For the molecule `COc1cc2c(cc1OC)-c1c(OC)c(OC)cc3c1C(C2)N(C)CC3` (centres unmarked), the “hERG current change (%, negative = inhibition) at 10uM” value is recorded as -5.23%.

`Cc1ccc2cc3c(NS(=O)(=O)c4cccc5nonc45)nn(CC(C)C)c3nc2c1`: the “hERG current change (%, negative = inhibition) at 10uM” value came out at 9.9%.

With `CC(=O)Nc1ccc(C(=O)Nc2ccncc2)cc1`, the “hERG current change (%, negative = inhibition) at 10uM” value was 15%.

On to `CCOC(=O)c1c(C)[nH]c(C(=O)OCC(=O)N(CC(C)C)C2CCS(=O)(=O)C2)c1C` (centres unmarked), for which the “hERG current change (%, negative = inhibition) at 10uM” value is -17%.

For `CCn1cnc2c1c(=O)n(CC(=O)NCC(C)C)c(=O)n2Cc1ccccc1`, the “hERG current change (%, negative = inhibition) at 10uM” value worked out at 18.1%.

As to `CC(Sc1nc(-c2ccccc2)cs1)C(=O)Nc1ccc(Cl)cn1` (centres unmarked), the “hERG current change (%, negative = inhibition) at 10uM” value came to 9.44%.

As for `O=C(C1CCC1)N1CCN(S(=O)(=O)c2ccccc2)CC1`, the “hERG current change (%, negative = inhibition) at 10uM” value worked out at 15.1%.

`CN(C)CCCn1c(=S)[nH]c2sc3c(c2c1=O)CCCC3`: the “hERG current change (%, negative = inhibition) at 10uM” value is listed as -6.36%.

As to `COc1ccc(OC)c(N(CC(=O)N2CCCC2)S(C)(=O)=O)c1`, the “hERG current change (%, negative = inhibition) at 10uM” value is reported as 7.44%.

Consider `COc1ccccc1NC(=O)CNc1ccc(F)c(Cl)c1`, for which the “hERG current change (%, negative = inhibition) at 10uM” value is listed as -11.7%.

For the molecule `NC(=O)[C@@H]1CCCCNc2c(F)cc([N+](=O)[O-])cc2C(=O)N[C@@H](CC(=O)O)C(=O)N[C@@H](CCC(=O)O)C(=O)N1`, the “hERG current change (%, negative = inhibition) at 10uM” value came out at 16.8%.

Turning to `Cc1ccc2c(c1)C(C)CC(C)(C)N2C(=O)NC1CCCCC1` (centres unmarked), the “hERG current change (%, negative = inhibition) at 10uM” value is listed as -12.5%.

For the molecule `C/C(=N\NC(=O)c1ccc(NS(=O)(=O)c2cccs2)cc1)c1cccs1`, the “hERG current change (%, negative = inhibition) at 10uM” value is 5.99%.

Consider `CCOC(=O)N1CCC(NC(=O)C2CCCN2C(=O)OCc2ccccc2)CC1` (centres unmarked), for which the “hERG current change (%, negative = inhibition) at 10uM” value is -2.7%.

Consider `CC(Oc1ccc(F)cc1)C(=O)Oc1ccc(N(C)S(=O)(=O)c2ccccc2)cc1` (centres unmarked), for which the “hERG current change (%, negative = inhibition) at 10uM” value is 16.3%.

As to `Cc1ccc(NC(=O)CN(C)C(=O)c2ccc(NC(=O)CC3SC(N4CCCC4)=NC3=O)cc2)cc1` (centres unmarked), the “hERG current change (%, negative = inhibition) at 10uM” value was 12.5%.

With `ON1C2CCCCC2N(O)C1c1ccccc1C(F)(F)F` (centres unmarked), the “hERG current change (%, negative = inhibition) at 10uM” value was -1.09%.

Take `COc1ccc(/C=C/C(=O)NCc2cccnc2)cc1`: the “hERG current change (%, negative = inhibition) at 10uM” value is 7.38%.

`Cc1nn(Cc2ccccc2Cl)c(C)c1NC(=O)NC12CC3CC(CC(C3)C1)C2`: the “hERG current change (%, negative = inhibition) at 10uM” value is listed as -1.42%.

As for `Cc1cc(C)n2c(SCC(=O)NCc3ccc4c(c3)OCO4)nnc2n1`, the “hERG current change (%, negative = inhibition) at 10uM” value is 14.5%.

For the molecule `CCN(CC)c1nc2c3c(nc4c(c3c1C#N)CC(=O)N4c1ccc(Cl)cc1)NC(C)=N2`, the “hERG current change (%, negative = inhibition) at 10uM” value is given as 4.82%.

As for `CN1CCN(S(=O)(=O)c2cccc(C(=O)NCCC3=CCCCC3)c2)CC1`, the “hERG current change (%, negative = inhibition) at 10uM” value is given as -7.54%.

For the molecule `COc1ccc(CCC(=O)Nc2cc(S(=O)(=O)N3CCOCC3)ccc2OC(C)C)cc1`, the “hERG current change (%, negative = inhibition) at 10uM” value is -34.8%.

On to `CC(C)(C)c1ccc(/C=C(\c2nc3ccccc3[nH]2)S(=O)(=O)c2ccccc2)cc1`, for which the “hERG current change (%, negative = inhibition) at 10uM” value came to 0.84%.

As to `CN1CCN(c2nc3c(c(=O)[nH]c(=O)n3C)n2Cc2ccccc2)CC1`, the “hERG current change (%, negative = inhibition) at 10uM” value is listed as -25.4%.

In the case of `C(=C\c1nc(N2CCCC2)c2ccccc2n1)/c1ccccc1`, the “hERG current change (%, negative = inhibition) at 10uM” value is -48.9%.

For `CCOC(=O)C(O)(CC(=O)Nc1ccc(Cl)cc1Cl)C(F)(F)F` (centres unmarked), the “hERG current change (%, negative = inhibition) at 10uM” value came out at 5.34%.

In the case of `Cc1cc(OCC(=O)O)c2ccccc2n1`, the “hERG current change (%, negative = inhibition) at 10uM” value was 12.2%.

In the case of `CC(=O)SC(C[N+](=O)[O-])c1cn(C(C)=O)c2ccccc12` (centres unmarked), the “hERG current change (%, negative = inhibition) at 10uM” value was 4.89%.

Turning to `Cc1ccc(-n2nnnc2SCC(=O)N2CC(=O)Nc3ccccc32)cc1`, the “hERG current change (%, negative = inhibition) at 10uM” value is given as -2.39%.

In the case of `Cc1ccc(C(=O)/C=C/c2cc(Br)cc(Br)c2O)o1`, the “hERG current change (%, negative = inhibition) at 10uM” value is 13.7%.

Regarding `Cc1ccc(C)c(OCC(=O)Nc2ccccc2N2CCCC2)c1`, the “hERG current change (%, negative = inhibition) at 10uM” value was 8.58%.

Regarding `CC1(c2nnc(Cc3ccccc3)o2)CC(c2c(Cl)cccc2Cl)=NO1` (centres unmarked), the “hERG current change (%, negative = inhibition) at 10uM” value was -34.6%.

As to `Cc1cc(C(=O)NC2CC(C)(C)Cc3c2cnn3-c2ccccc2)n[nH]1` (centres unmarked), the “hERG current change (%, negative = inhibition) at 10uM” value is -19.2%.

On to `COc1ccc(CCNC(=O)CNCC2CCCO2)cc1OC.O=C(O)C(=O)O` (centres unmarked), for which the “hERG current change (%, negative = inhibition) at 10uM” value came to 14.1%.

For the molecule `Cc1ccc2c(CSc3nncn3C)cc(=O)oc2c1C`, the “hERG current change (%, negative = inhibition) at 10uM” value was 13.4%.

The values are drawn from publication PMC4336329 (PLoS ONE, 2015).
